Data taken from PubChem BioAssay AID1508642 (National Center for Advancing Translational Sciences (NCATS), 2021).
Among all 43,000 compounds or so, about 200 (0.47%) were called active. Not shown: some 12% with an inconclusive outcome. Calls follow the shape of the dose curve; as a rule, active = well fitted cell-killing curve with a large enough effect; inconclusive = small, poorly fitted or top-dose-only effect, or effect the other way; inactive = flat fitted curve, though single readings scatter. The list shows a part of the results.

Assay: Cell viability qHTS assay in S16 Pmp22-F2sN cells; also: nearly all actives have a fitted effect of over 65% in size
Details: S16 Pmp22-F2sN Schwann cells (luciferase reporters placed in the Pmp22 gene) viability, CellTiter-Glo, 24 h; series mostly up to 57.5 µM; activity change, negative = cytotoxicity: at the top concentration
Method in brief: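 Seed 500-1,000 S16 Pmp22-F2sN cells per well in phenol-red-free DMEM with 10% heat-inactivated FBS; pin-add 23 nL compound; incubate 24 h at 37C; add CellTiter-Glo, wait 15 min protected from light; read luminescence.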
% is scaled to controls: 0 for no effect and ±100 for the full control effect; potency is read from the fitted curve at half-maximal effect.

| SMILES | activity change, negative = cytotoxicity | Potency |
| --- | --- | --- |
| CCOc1ccc(C(=O)NCC(c2ccco2)S(=O)(=O)c2ccc(C)cc2)cc1 (stereo unspecified) | inactive: -19.6% |  |
| Cn1c(=O)c2nc(SCC(=O)Nc3cc(Cl)ccc3Cl)n(C)c2n(C)c1=O | inactive: 0.101% |  |
| c1ccc(CNc2nc3ccccc3c3nc(-c4ccccc4)nn23)cc1 | inactive: 20.2% |  |
| NC(=O)CSc1nc2c(oc3ccccc32)c(=O)n1-c1ccccc1F | inactive: -2.76% |  |
| Cc1cccc(-c2nc(SCCCOc3ccccc3Cl)n3[nH]c(=O)cc3n2)c1 | inactive: 7.21% |  |
| CC(=O)Nc1ccc(Nc2ncnc3c2c(-c2ccccc2)cn3-c2ccccc2)cc1 | inactive: -24.4% |  |
| Cc1cc(C)cc(-n2c(SCC(=O)N3CCc4ccccc43)nc3c([nH]c4ccccc43)c2=O)c1 | inactive: -0.226% |  |
| O=C(Nc1ccc(F)c(Cl)c1)N1CCN(C(=O)c2nsc3ccccc23)CC1 | inactive: 1.52% |  |
| CCOc1ccc(OCC)c(NC(=O)C2CCCN(S(=O)(=O)c3ccc4c(c3)oc(=O)n4C)C2)c1 (stereo unspecified) | inactive: 15.5% |  |
| CCOc1ccc(CNC(=O)Cn2c(=O)c3cccn3c3ccc(F)cc32)cc1 | inactive: 12.6% |  |
| Cc1ccc(C)c(N2CCN(S(=O)(=O)c3ccc4oc(=O)c5ncn(C)c5c4c3)CC2)c1 | inactive: 5.9% |  |
| COc1cc(NC(=O)Cn2c(=O)n(Cc3ccccc3OC)c(=O)c3cccnc32)cc(OC)c1 | inactive: 11.5% |  |
| Cc1ccc(C(=O)COC(=O)c2cc(-c3ccccc3)nc3ccccc23)cc1C | inactive: 27.1% |  |
| COc1ccc(NC(=O)CCN2CCN(c3cccc(Cl)c3)CC2)cc1 | inactive: 10.7% |  |
| Cc1ccc(S(=O)(=O)c2nnn3c2nc(NCc2ccc(F)cc2)c2sccc23)cc1 | inactive: 1.09% |  |
| CCCNC(=O)c1ccc2c(c1)N(Cc1cccc(C)c1)C(=O)c1ccccc1S2 | inactive: -2.32% |  |
| COc1ccc(-c2nc(C)c(CCNC(=O)C(=O)Nc3cccc(F)c3)s2)cc1OC | inactive: -2.84% |  |
| COc1ccccc1NC(=O)CCCOc1cc(=O)n(C)c2ccccc12 | inactive: -5.74% |  |
| CC1CCN(c2nc3c(S(=O)(=O)c4ccccc4)nnn3c3ccsc23)CC1 | inactive: 5.1% |  |
| Cc1ccc(C)c(Cn2c(=O)n(Cc3ccccc3)c(=O)c3c(C)c(C)sc32)c1 | inactive: -18.5% |  |
| CCOC(=O)CCn1nc(-c2ccc(C)cc2)c2ccccc2c1=O | inactive: -9.57% |  |
| CCc1ccccc1NC(=O)Nc1nnc(N2CCCC2)s1 | inactive: 7.79% |  |
| CCc1ccc(CN(Cc2ccco2)C(=O)c2ccccc2Cl)cc1 | inactive: -3.46% |  |
| O=C(CC1N=C2c3ccccc3N=C(SCC(=O)Nc3cccc(C(F)(F)F)c3)N2C1=O)NCc1cccs1 (stereo unspecified) | inactive: -8.73% |  |

| SMILES | activity change, negative = cytotoxicity | Potency |
| --- | --- | --- |
| COc1ccc(CCNC(=O)c2nn(-c3ccc(C)cc3)c(=O)c3c2c2ccccc2n3C)cc1OC | inactive: 21.7% |  |
| COc1ccccc1CCNC(=O)c1ccc2c(c1)c(C)c(C)n2C | inactive: -3.47% |  |
| CCc1ccc(NCc2cc3cc4c(cc3n(CC(=O)Nc3ccc(Cl)cc3)c2=O)OCO4)cc1 | inactive: 9.97% |  |
| COc1ccc(NC(=O)CSc2ncc(-c3ccc(Cl)cc3)[nH]2)cc1OC | inactive: -1.62% |  |
| CCc1ccccc1NC(=O)Cn1nnc(C(=O)OC)c1C(=O)OC | inactive: -1.01% |  |
| CCN(CC)S(=O)(=O)c1ccc2c(c1)N(CC(=O)Nc1c(C)cccc1C)C(=O)CO2 | inactive: 1.84% |  |
| COc1ccc(OC)c(N(CC(=O)NCc2ccccc2)S(=O)(=O)c2ccccc2)c1 | inactive: -1.34% |  |
| CCOC(=O)c1sc2ccccc2c1S(=O)(=O)Nc1ccc(N(C)C)cc1 | inactive: -25.9% |  |
| CCOC(=O)c1sc(N2C(=O)c3oc4cc(C)c(C)cc4c(=O)c3C2c2cccc(O)c2)nc1C (stereo unspecified) | inactive: -6.01% |  |
| Cc1cc(S(=O)(=O)Nc2cccc(C(=O)O)c2)c(C)c(S(=O)(=O)c2ccccc2)c1 | inactive: 8.85% |  |
| COC(=O)c1cc(NC(=O)CCc2c(C)nc3c4c(C)cc(C)nc4nn3c2C)cc(C(=O)OC)c1 | inactive: 9.71% |  |
| Cc1ccc(Cn2c(=O)n(CCCCC(=O)NCCc3ccc(Cl)cc3)c(=O)c3ccccc32)cc1 | inactive: 24.9% |  |
| CCc1nnc2c(Nc3ccc(Br)c(C)c3)nc3ccccc3n12 | inactive: -0.143% |  |
| COc1ccc(S(=O)(=O)N2CCN(c3ccc(F)cc3)CC2)cc1-c1noc(C)n1 | inactive: -4.68% |  |
| Cc1cc(C)cc(OCC(=O)NCC(c2ccc(Cl)cc2)N2CCCCC2)c1 (stereo unspecified) | inactive: 6.32% |  |
| CC1CCc2c(sc3nnn(Cc4ccc(F)cc4)c(=O)c23)C1 (stereo unspecified) | inactive: -6.59% |  |
| Cn1c(=O)c2c(n3c4ccccc4nc13)NC(=O)CC2c1ccccc1F (stereo unspecified) | inactive: -14.3% |  |
| CCOC(=O)c1c(Oc2ccc(C(=O)OC)cc2)nnc(-c2ccccc2)c1-c1ccccc1 | inactive: -15.4% |  |
| Cc1ccc(C)c(N(C)C(=O)c2cn(C)c(=O)c3ccccc23)c1 | inactive: -0.87% |  |
| COc1cc(NC(=O)Cn2c(SCc3ccc(F)cc3)nc3cccnc32)cc(OC)c1 | inactive: 5.14% |  |
| Cc1ccc(CCNC(=O)CCc2cn(Cc3ccccc3C)c3ccccc23)cc1 | inactive: 5.23% |  |
| Cc1cc(C)cc(-n2cnc3cc(C(=O)NCCc4ccccc4)ccc32)c1 | inactive: -4.47% |  |
| Cc1cccc(NC(=O)c2cc(S(=O)(=O)N3CCCCC3)c[nH]2)c1C | inactive: -12.2% |  |
| Brc1csc(CN2CCc3nc(Nc4ccccc4)ncc3C2)c1 | inactive: -6.15% |  |

| SMILES | activity change, negative = cytotoxicity | Potency |
| --- | --- | --- |
| COc1cc(CN(C(=O)c2cc3ccccc3oc2=O)C2CCS(=O)(=O)C2)cc(OC)c1OC (stereo unspecified) | inactive: 0.0163% |  |
| Cc1cccc(Cn2c(SCc3ccc(C(=O)N4CCCCCC4)cc3)nc3ccncc32)c1 | inactive: -19.9% |  |
| O=C(c1cccc(Cl)c1)n1nc(-c2ccco2)nc1NCc1cccs1 | inactive: -19.5% |  |
| O=C(CNC(=O)c1ccccc1Cl)OCc1cc(=O)n2ccsc2n1 | inactive: -1.08% |  |
| COc1ccccc1-n1cc(-c2ccc(C)cc2)nc1S(=O)(=O)CC(=O)Nc1ccccc1C(F)(F)F | inactive: -7.49% |  |
| COc1ccc(CNCCSc2nnnn2-c2ccccc2)cc1 | inactive: 2.53% |  |
| COc1ccc(CC(=O)Nc2ccc3nc(Nc4cccc(Cl)c4)cc(C)c3c2)cc1OC | inactive: -12.2% |  |
| COc1ccccc1NC(=O)CSc1nnc(-c2cccc(Cl)c2)o1 | inactive: -2.63% |  |
| CCOc1ccccc1-c1nc(-c2ccc(-c3ccccc3)nc2OCC)no1 | inactive: 1.48% |  |
| COc1ccccc1Nc1c2c(nc3ccc(NC(=O)/C=C/c4cccc(OC)c4OC)cc13)CCCC2 |  | active: 25.1 µM |
| Cc1ccc(Nc2c3c(nc4nncn24)CCC3)cc1 | inactive: 3.65% |  |
| COc1cc(OC)c(NC(c2nnc(-c3ccccc3)o2)c2ccc(F)cc2Cl)cc1Cl (stereo unspecified) | inactive: -20.9% |  |
| CCc1ccc(-n2nnc(-c3nc(-c4ccccc4)no3)c2C)cc1 | inactive: -1.23% |  |
| COc1ccc(CCNC(=O)c2ccc3c(c2)N(Cc2cccc(C)c2)C(=O)c2ccccc2S3(=O)=O)cc1OC | inactive: 11.9% |  |
| COC(=O)c1ccc(NC(=O)C2(S(=O)(=O)c3ccc(C)cc3)CC2)cc1 | inactive: 5.39% |  |
| Cc1ccc(C(=O)Nc2nnc(S(=O)(=O)N3CCOCC3)s2)cc1 | inactive: 2.06% |  |
| O=C(NCc1ccc(F)cc1)C1CCN(C(=O)c2ccc(-n3ccc4ccccc43)s2)CC1 | inactive: -18.5% |  |
| Cc1ccc(CN2CCCn3nc(C(=O)NCCC(C)C)cc3C2=O)cc1 | inactive: -19.2% |  |
| COC(=O)c1sc(-c2ccccc2)cc1NC(=O)c1cccc(F)c1 | inactive: 0.0328% |  |
| COc1cccc(CNC(=O)c2c(C)nn(-c3cccc(C)c3)c2-n2cccc2)c1 | inactive: -6.08% |  |
| O=C(NCCCc1ccccc1)c1nn(-c2ccccc2F)nc1CO | inactive: -4.39% |  |
| CC(=O)c1ccc(NC(=O)C2CCC(CNS(=O)(=O)c3ccc(Br)s3)CC2)cc1 (stereo unspecified) | inactive: 3.85% |  |
| O=C(NC(=O)c1cccc(F)c1)Nc1ccc(-c2cc(C(F)(F)F)nn2-c2ccccc2)cc1 | inactive: -0.237% |  |
| Cc1nc(-c2ccc(C)c(N3CCN(C(=O)Nc4ccccc4C(F)(F)F)CC3)c2)no1 | inactive: -2.04% |  |

| SMILES | activity change, negative = cytotoxicity | Potency |
| --- | --- | --- |
| O=C(NCCc1ccccc1)c1ccc(CSc2nc3cccnc3n2Cc2ccc(F)cc2)cc1 | inactive: -25.6% |  |
| CCc1ccc(Sc2cc(C(=O)NCc3ccccc3OC)c3ccccc3n2)cc1 | inactive: -20.7% |  |
| Cc1cccc(NC(=O)CSc2cn(CC(=O)N3CCCCCC3)c3ccccc23)c1 | inactive: -0.0962% |  |
| Cc1cc(OC(C)C(=O)Nc2c(C(=O)c3ccc(F)cc3)oc3ccccc23)ccc1Cl (stereo unspecified) | inactive: 16.6% |  |
| COC(=O)c1ccc(OCC2c3cc(OC)c(OC)cc3CCN2C(=O)Cc2ccc(OC)cc2)cc1 (stereo unspecified) | inactive: -1.67% |  |
| CCOc1ccc(N2CC(NC(=O)C(=O)c3c[nH]c4ccccc34)CC2=O)cc1 (stereo unspecified) | inactive: 5.33% |  |
| CCn1c(=O)cc(SCC(=O)NCc2ccc(F)cc2Cl)c2ccccc21 | inactive: -15.3% |  |
| COc1ccc(C2NC(=O)N(C)C3=C2C(=O)N(c2cccc(Cl)c2)C3)cc1 (stereo unspecified) | inactive: -2.71% |  |
| CCc1ccc(Sc2cc(C(=O)NCc3cccc(OC)c3)c3ccccc3n2)cc1 | inactive: -12.2% |  |
| CCc1ccc2nc(N(CCN(CC)CC)C(=O)c3ccco3)sc2c1 | inactive: 0.057% |  |
| Cc1ccc(NC(=O)c2ccc(-c3cccc(Cl)c3C)o2)cc1 | inactive: 26.9% |  |
| COc1ccc(OC)c(CNC(=O)c2cc3c(-c4ccc(OC)c(OC)c4)nn(C)c3s2)c1 | inactive: 0.593% |  |
| Cc1ccc(OCc2nc(-c3ccc(C(=O)N4CCN(c5ccccc5F)CC4)cc3)oc2C)cc1 | inactive: 7.19% |  |
| O=C1OC(C(=O)Nc2cccc(Br)c2)Cc2ccccc21 (stereo unspecified) | inactive: -17.1% |  |
| Cc1cccc(-n2ncc(C(=O)N3CCN(c4ccc(Cl)cc4)CC3)c2C2CCN(C(=O)OC(C)(C)C)CC2)c1 | inactive: -8.75% |  |
| Cc1cccc(N2C(=O)N(CC(=O)C(C)(C)C)c3ccccc3S2(=O)=O)c1C | inactive: 12.8% |  |
| Cc1ccc(C)c(NC(=O)CN2CCCN(Cc3cccc(Cl)c3)S2(=O)=O)c1 | inactive: -15.9% |  |
| CCCCCn1c(=O)[nH]c2cc(C(=O)Nc3cc(C)cc(C)c3)ccc2c1=O | inactive: -0.409% |  |
| CN(C)S(=O)(=O)N(CC(=O)NCCSCc1ccccc1)c1ccccc1 | inactive: 18.1% |  |
| Cc1ccc(C(=O)N2c3ccc(C)cc3C(C)(c3ccccc3)CC2(C)C)cc1 (stereo unspecified) | inactive: 4.82% |  |
| CCc1ccc(C(=O)c2cn(CC(=O)Nc3cccc(OC)c3)c3ccc(OC)cc3c2=O)cc1 | inactive: 2.05% |  |
| COc1ccc(OCC(=O)NCc2ccc3c(c2)CCN3C(=O)c2ccccc2)cc1 | inactive: -22.1% |  |
| O=C(c1cc2ccccc2oc1=O)N1CCN(c2ccc(Cl)cc2)CC1 | inactive: 25.9% |  |
| O=C(NCCc1ccccc1)c1cnc2sc(N3CCCCCC3)nn2c1=O | inactive: 22.1% |  |
